The values below come from article PMC6919601, “Identification of Plasmodium dipeptidyl aminopeptidase allosteric inhibitors by high throughput screening” (PLoS ONE, 2019).

About 230 (0.21%) of roughly 110,000 compounds showed an effect of 50% or more. Some of the results follow.
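Note: 30 min substrate incubation versus DMSO and 10 µM JCP410 controls.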

This assay deals with DPAP1 (Plasmodium falciparum, UniProt Q8IIJ9). As to the kind of experiment: primary screen, percent inhibition; read by cleavage of a fluorogenic dipeptide substrate; higher = more effect of the substance. Further details: species or system P. falciparum D10 trophozoite lysates; single well.
DPAP1, sequence (Q8IIJ9 whole entry, looked up): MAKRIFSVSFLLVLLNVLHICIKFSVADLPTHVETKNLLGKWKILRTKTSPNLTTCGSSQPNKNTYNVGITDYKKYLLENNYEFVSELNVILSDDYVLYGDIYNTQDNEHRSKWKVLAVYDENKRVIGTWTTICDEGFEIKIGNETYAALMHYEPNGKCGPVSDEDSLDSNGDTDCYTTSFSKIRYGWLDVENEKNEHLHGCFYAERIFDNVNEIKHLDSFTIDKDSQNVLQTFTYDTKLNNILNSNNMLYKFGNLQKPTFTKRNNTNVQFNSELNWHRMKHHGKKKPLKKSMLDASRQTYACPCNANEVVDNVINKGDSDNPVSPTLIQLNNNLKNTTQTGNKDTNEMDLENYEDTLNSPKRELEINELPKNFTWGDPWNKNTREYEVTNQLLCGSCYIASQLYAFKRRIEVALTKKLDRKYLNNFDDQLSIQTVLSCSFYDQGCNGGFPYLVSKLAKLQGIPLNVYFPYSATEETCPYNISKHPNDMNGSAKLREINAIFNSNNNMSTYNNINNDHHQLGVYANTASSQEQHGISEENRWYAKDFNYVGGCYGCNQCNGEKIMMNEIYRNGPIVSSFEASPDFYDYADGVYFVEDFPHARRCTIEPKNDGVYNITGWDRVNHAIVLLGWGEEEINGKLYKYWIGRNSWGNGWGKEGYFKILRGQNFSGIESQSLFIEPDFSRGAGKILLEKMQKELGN
Consider `CCc1ccc(Oc2nc3c(C)cccn3c(=O)c2/C=C(\C#N)C(=O)NC2CCCCC2)cc1`, for which the “% Inhibition @ 10 uM” value is -1.43%.
Regarding `Cc1cccc(C(=O)Nc2ccc(-c3cn4ccsc4n3)cc2)c1`, the “% Inhibition @ 10 uM” value is on record as -0.366%.
Regarding `O=C(CCc1cc(Cl)no1)N1CCC(c2c[nH]c3ccccc23)(c2c[nH]c3ccccc23)CC1`, the “% Inhibition @ 10 uM” value is recorded as -0.637%.
For the molecule `O=C(NCCC1=CCCCC1)C1CCN(C(=O)c2cnn(-c3ccccc3)c2-n2cccc2)CC1`, the “% Inhibition @ 10 uM” value amounted to 3.4%.
As for `Cc1ccnc(NC(=O)c2ccc(C)c(C)c2)c1`, the “% Inhibition @ 10 uM” value stood at 2.64%.
Regarding `Cc1cccc(NC(=O)CCCC(=O)Nc2cccc(C)c2)c1`, the “% Inhibition @ 10 uM” value is on record as -4.67%.
For the molecule `Cc1c(CN2C[C@@H]3C[C@H](C2)c2cccc(=O)n2C3)c(=O)n(-c2ccccc2)n1C`, the “% Inhibition @ 10 uM” value is -3.63%.
The value for `CCOc1ccc(CCNC(=O)c2nnc(CS(=O)(=O)c3ccccc3)o2)cc1OCC` was -0.602%; that for `COc1cc(OC)cc(C(=O)Nc2cccc(C)c2C)c1` was 2.13%.
The value for `CCN1CCN(C(=O)/C=C\C(=O)O)CC1` was 3.04%.
The value for `COc1ccc(S(=O)(=O)N2CCC(Cc3ccccc3)CC2)cc1OC` was -5.06%; that for `COc1ccc2c(=O)cc(-c3ccc4c(c3)OCO4)n(C)c2c1` was 6.43%; that for `OCC1CCCN1Cc1ccc(Cl)cc1Cl` (stereo not drawn) was -0.0494%.
In the case of `Cc1nn(-c2ccccc2)c(-n2cccc2)c1C(=O)O`, the “% Inhibition @ 10 uM” value worked out at 1.63%.
As to `COc1cccc(CN2C(=O)c3ccccc3C2=O)c1`, the “% Inhibition @ 10 uM” value is recorded as -5.15%.
`CCC(CN1CCOCC1)NC(=O)C1CCN(c2ncnc3c2nc2n3CCCCC2)CC1` (stereo not drawn): the “% Inhibition @ 10 uM” value was -2.46%.
For `CCOC(=O)N1CCC(NC(=O)C(=O)CC(=O)c2ccc(OC)cc2)CC1`, the “% Inhibition @ 10 uM” value stood at 4.01%.
As for `Cn1c(COc2ccc(C(=O)O)cc2)nc2ccccc21`, the “% Inhibition @ 10 uM” value stood at 3.36%.
The figure for `O=C(Nc1ccc(S(=O)(=O)N2CCCCCC2)cc1)c1ccco1` is -2.56%; for `NC(=O)CN1C(C(=O)c2ccccc2)=C(NCc2ccccc2)c2ccccc2S1(=O)=O` it is 5.17%; for `Cc1cc(C)c(S(=O)(=O)Nc2ccc(S(=O)(=O)N3CCCC3)cc2)c(C)c1` it is 0.583%.
With `COc1ccc(-n2ncc3c(NCc4ccccc4Cl)ncnc32)cc1`, the “% Inhibition @ 10 uM” value is 2.07%.
As for `NS(=O)(=O)c1ccc(NCCCC(=O)O)cc1`, the “% Inhibition @ 10 uM” value was -6.71%.
As to `Cc1cccc(C(=O)Nc2sc3c(c2C(N)=O)CCCC3)c1`, the “% Inhibition @ 10 uM” value is on record as 7.98%.
For `CC(=O)Nc1cccc(NC(=O)C(C)Oc2ccc(Cl)cc2Cl)c1` (stereo not drawn), the “% Inhibition @ 10 uM” value is reported as -9.79%.
As to `CC1=C(C(=O)Nc2ccc(Cl)cc2)C(c2ccc(Br)cc2)NC(=O)N1` (stereo not drawn), the “% Inhibition @ 10 uM” value was -1.04%.
Consider `Cc1ccc(OCCN2C(=O)CSC2=O)cc1`, for which the “% Inhibition @ 10 uM” value was determined as 1.63%.
Regarding `Cc1ccc(OCC(=O)Nc2ccc(S(=O)(=O)NC(C)(C)C)cc2)c(C)c1`, the “% Inhibition @ 10 uM” value was found to be 4.57%.
Consider `Cc1ccc(OCC(=O)Nc2cccc(C)n2)c(C)c1`, for which the “% Inhibition @ 10 uM” value worked out at 7.54%.
The figure for `CCCSc1ncc(Cl)c(C(=O)Nc2sc(C(=O)OCC)c(C)c2C(=O)OCC)n1` is 4.47%; for `CCCOc1ccc(C2C(C#N)=C(N)Oc3cc(C)oc(=O)c32)cc1OC` (stereo not drawn) it is 12.2%.
For the molecule `C=CC[C@](O)(c1ccccc1)[C@@H](O)c1ccccc1`, the “% Inhibition @ 10 uM” value was determined as 0.851%.
The figure for `O=S1(=O)CCC(S(=O)(=O)N(Cc2ccccc2)Cc2ccccc2)C1` (stereo not drawn) is -0.712%; for `COc1ccc(NC(=O)c2ccccc2C)c(OC)c1` it is -3.15%.
The value for `CC(=O)Nc1ccc(S(=O)(=O)Nc2ccc(S(=O)(=O)Nc3ccc(F)cc3)cc2)cc1` was -7.96%.
Consider `COC(=O)c1ccc(C2CC(=O)NC3=C2C(=O)CCC3)cc1` (stereo not drawn), for which the “% Inhibition @ 10 uM” value was -3.21%.
The figure for `Cc1ccc(C)c(OCC(=O)N2CCc3ccccc32)c1` is -5.67%.
For `O=C(NCc1ccccc1Cl)c1ccc2c(c1)ncn2-c1ccc(F)cc1F`, the “% Inhibition @ 10 uM” value was found to be 1.2%.
On to `Cc1nn(C)c2c1c(-c1ccccc1)cc(=O)n2C(C)C(=O)N1CCC2(CC1)OCCO2` (stereo not drawn), for which the “% Inhibition @ 10 uM” value is -6.31%.
With `CCOc1cc(C2C(C#N)=C(N)Oc3cc(N)ccc32)ccc1OC` (stereo not drawn), the “% Inhibition @ 10 uM” value is -7.52%.
Consider `O=S(=O)(Nc1ccccc1C(F)(F)F)c1cc(Cl)ccc1Cl`, for which the “% Inhibition @ 10 uM” value is on record as -4.91%.
As to `COc1ccc(CNC2CCCCC2)c(OC)c1C`, the “% Inhibition @ 10 uM” value is recorded as 2.22%.
The value for `CCC1CCC(N(C)CCc2ccccn2)CC1` (stereo not drawn) was 3.06%; that for `CC(=O)n1c(-c2ccccc2)c(-c2ccccc2)n(C)c1=O` was -4.39%.
On to `Cc1onc(-c2ccccc2)c1C(=O)Nc1cccc(Br)c1`, for which the “% Inhibition @ 10 uM” value is -6.25%.
The figure for `N#CC1=C(NC(=O)Cc2ccccc2)c2ccccc2CC12CCCC2` is 0.878%; for `O=C1CC(c2cccc(F)c2)c2cc3c(cc2N1)OCO3` (stereo not drawn) it is 3.57%; for `COc1ccc(N2C(=O)CC(N(Cc3ccc4c(c3)OCO4)C(=O)c3cccc(F)c3)C2=O)cc1` (stereo not drawn) it is 1.64%.
Consider `COc1ccccc1C(=O)Nc1ccc2nc(SCC(=O)N(C)C)sc2c1`, for which the “% Inhibition @ 10 uM” value was -1.64%.
Turning to `O=C(C1CCN(S(=O)(=O)c2cccc3nsnc23)CC1)N1CCN(Cc2ccccc2)CC1`, the “% Inhibition @ 10 uM” value was 1.9%.
In the case of `CC1=C(C(=O)Nc2cccnc2)C(c2ccccc2)n2nc(CCCO)nc2N1` (stereo not drawn), the “% Inhibition @ 10 uM” value stood at 0.889%.
As for `Cc1ccc2[nH]c3c(c2c1)CCCC3NCCCOc1ccc(F)cc1` (stereo not drawn), the “% Inhibition @ 10 uM” value is listed as -3.82%.
Turning to `Cc1ccc2nc(NCCCN3CCOCC3)c3nncn3c2c1`, the “% Inhibition @ 10 uM” value is on record as -4.21%.
As to `O=C(O)c1ccc(COc2ccc(Br)cc2)cc1`, the “% Inhibition @ 10 uM” value is listed as 2.09%.
On to `Cc1cc(C(=O)Nc2cccnc2)on1`, for which the “% Inhibition @ 10 uM” value was -7.13%.
Take `CCOC(=O)NC(=O)c1ccc2ccccc2n1`: the “% Inhibition @ 10 uM” value was 1.12%.
Regarding `Cc1nn(Cc2nc(-c3ccc(-n4cccc4)cc3)no2)c(C)c1Br`, the “% Inhibition @ 10 uM” value is on record as 4.61%.
Consider `COC(=O)C1=C(C)N=c2s/c(=C/c3ccoc3)c(=O)n2C1c1ccccc1` (stereo not drawn), for which the “% Inhibition @ 10 uM” value is recorded as -2.63%.
`CN(C)S(=O)(=O)c1ccc(C(=O)C2=C(O)C(=O)N(CCN3CCOCC3)C2c2ccco2)cc1` (stereo not drawn): the “% Inhibition @ 10 uM” value is listed as -1.25%.
Regarding `Cn1c(=O)[nH]c(=O)c2c1nc1oc(-c3ccc([N+](=O)[O-])cc3)cn12`, the “% Inhibition @ 10 uM” value is -5.61%.
Take `Cn1c(=O)[nH]c(=O)c2ncn(Cc3ccccc3)c21`: the “% Inhibition @ 10 uM” value came out at 2.65%.
The figure for `Cc1ccc(Cn2cc(CCCC(=O)NCC3CCCO3)c3ccccc32)cc1` (stereo not drawn) is 0.526%; for `CCc1nn(CC(=O)NCCN2CCOCC2)c(=O)c2cc3c(OC)cccc3n12` it is 0.0198%.
